Data as given in patent US4149007A, “C14 Phenyl-substituted derivatives of prostaglandin analogues” (Miles Laboratories, Inc., priority 1977, dated 1979).
At least one read-out could not be matched to a standard name with certainty.

Key:
rat stomach fundus = test: Cascade assay: rat stomach fundus; assay type: cell-based; details: in vitro, smooth muscle stimulant ED50 scored
Description: (§1) (A) effects on the rat stomach, rat colon, chick rectum, and rabbit aorta in vitro (cascade assay);
(§2) The smooth muscle stimulant effects of test compounds were determined simultaneously in four different tissues that are known to be reactive to naturally occurring prostaglandins. Segments of rat stomach fundus, rat colon, chick rectum and rabbit aortic strip were obtained as described by: Vane, J. R., Brit. J. Pharmacol., 12: 344 (1957); Regoli, D. and Vane, J. R., Brit. J. Pharmacol., 23: 351 (1964); Mann, M. and West, G. B., Brit. J. Pharmacol., 5: 173 (1950); and Furchgott, R. F. and Bhadrakom, R., J. Pharmacol. Exper. Ther., 108: 129 (1953). One end of each preparation was tied to the bottom of a 10 ml tissue chamber and the other to a force displacement transducer (Grass FT-03) for continuous tension recording. The stomach, colon, and rectum segments were stretched to an initial tension of 1 g, while the aortic strip was subjected to 4 g. All preparations were left undisturbed for 1 hour prior to testing. The chambers were equipped with an external jacket through which water, maintained at 40° C., was circulated. Preparations were arranged one beneath the other in descending order (aorta, stomach, colon and rectum). Provision was made for bathing the four tissues successively so that they were superfused with the same fluid (Gaddum, J. H., Brit. J. Pharmacol., 6: 321 [1953]). The bathing fluid consisted of: Krebs bicarbonate solution aerated with a mixture of 95% O2 and 5% CO2 and warmed at 37° C.; atropine sulphate (0.1 mcg/ml), phenoxybenzamine hydrochloride (0.1 mcg/ml), propranolol hydrochloride (3.0 mcb/ml), methysergide maleate (0.2 mcb/ml) and brompheniramine maleate (0.1 mcg/ml) were added to eliminate the possibility of smooth muscle responses being due to stimulation of cholinergic, adrenerigic, serotonin or histamine receptors. The fluid was circulated by means of a roller pump and was allowed to drip over the preparations at a rate of 10 ml/minute.
(§3) Test compounds were diluted from stock solutions so as to administer quantities ranging from 0.0001 to 100,000 ng in a volume of 0.5 ml. The compounds were applied by dripping on the uppermost tissue, at intervals of 10 to 20 minutes. Maximal increases in tension after each dose were measured and the results were used to plot dose-response curves. ED50 data (doses necessary to produce a response 50% of maximum) were then calculated graphically for each tissue.
(§4) Activity in each tissue was scored according to the following scale: […]

rat colon = test: Cascade assay: rat colon; assay type: cell-based; details: in vitro, smooth muscle stimulant ED50 scored
Description: as §1, §2, §3, §4

chick rectum = test: Cascade assay: chick rectum; assay type: cell-based; details: in vitro, smooth muscle stimulant ED50 scored
Description: as §1, §2, §3, §4

rabbit aortic strip = test: Cascade assay: rabbit aortic strip; assay type: cell-based; details: in vitro, smooth muscle stimulant ED50 scored
Description: as §1, §2, §3, §4

human platelet = test: Inhibition of human platelet aggregation in vitro; assay type: cell-based; details: human platelet rich plasma, collagen-induced
Description: (E) effect on human platelet aggregation in vitro; and
The ability of test compounds to inhibit platelet aggregation was determined by a modification of the turbidometric technique of Born, G. V. R. (Nature, 194: 927 [1962]). Blood was collected from human volunteers, who had not ingested aspirin or aspirin-containing products within the preceding two weeks, in heparinized containers and was allowed to settle for one (1) hour. The platelet rich plasma (prp) supernates were collected and pooled. Siliconized glassware was used throughout.
In a representative assay, 1.9 ml of PRP and 0.2 ml of test compound at the appropriate concentration ([…]), or 0.2 ml of distilled water (control procedure) were placed in sample cuvettes. The cuvettes were placed in a 37° C. incubation block for 15 minutes, and then in a spectrophotometer linked to a strip chart recorder. After 30-60 seconds, 0.2 ml of a solution, prepared by diluting a calf-skin collagen solution 1:9 with Tyrodes' Solution, was added to each cuvette. Platelet aggregation was evidenced by a decrease in optical density.
An ED50 value was then determined graphically.

rat = test: Effects on gastric secretion in the rat; assay type: in vivo; details: pylorus ligated, 1.5 mg/kg s.c. twice (total 3.0 mg/kg), 4 hours
Description: (F) effect on gastric secretion in the rat;
A procedure based on that described by Lipman, W. (J. Pharm. Pharmacol., 21: 335 [1968]) was used to assess the influence of test compounds on gastric secretion. Rats of one sex weighing 150 to 200 g were randomly divided into groups of six animals each and fasted for 48 hours previous to the experiments, water being available ad libitum. The animals were anesthetized with ether, the abdomen opened through a midline incision, and the pylorus ligated. Test compounds were diluted from stock solution so as to administer a dose of 1.5 mg/kg in a volume equivalent to 1 ml/kg. Subcutaneous injections were applied immediately after surgery and again 2 hours later, so that a total dose of 3.0 mg/kg was administered. Dilutions were made with phosphate buffer (pH 7.38) as recommended by Lee et al. (Prostaglandins, 3: 29 [1973]) in order to insure adequate stability of drugs at the subcutaneous depot. Each compound was tested in one group of rats; an additional control group received only the vehicle.
Four hours after pyllric ligation the animals were killed with ether, the cardias ligated, and the stomachs removed. The volume of gastric secretion was measured and the contents centrifuged at 5000 rpm for 10 minutes. Total acid in the supernatent was titrated against a 0.1 N sodium hydroxide solution and the amount expressed in mEq.
Volume and total acid values of the treated group were compared with those of the controls […]. Antisecretory activity was scored according to the following scale: […]

Row | Structure (SMILES) | Cascade, Stomache: activity value (ED50) (rat stomach fundus) | Cascade, Colon: activity value (ED50) (rat colon) | Cascade, Rectum: activity value (ED50) (chick rectum) | Cascade, Aorta: activity value (ED50) (rabbit aortic strip) | Platelet Aggregation: activity value (ED50) (human platelet) | Gastric Secretion: activity value (% decrease in acidity) (rat)
1 | CCCCC[C@@H](O)/C(=C/C1CCC(=O)C1C/C=C\CCCC(=O)OC)c1ccccc1 (mixture of isomers) [Example 8, Methyl dl-14-phenyl-15R-hydroxy-9-oxoprosta-5,13E-dien-1-oate] | 0 (>10000) | 0 (>10000) | 0 (>10000) | 0 (>10000) | 1 (>0.1 and ≤1.0) | –
2 | CCCCCC(O)/C(=C/[C@@H]1[C@@H](C/C=C\CCCC(=O)O)[C@@H](O)C[C@H]1O)c1ccccc1 (stereo partly drawn) [Example 14, 14-Phenyl-9α,11α,15R,S-trihydroxyprosta-5Z,13E-dien-1-oic acid] | 0 (>10000) | 0 (>10000) | 0 (>10000) | 0 (>10000) | 1 (>0.1 and ≤1.0) | 0 (<26)
3 | CCCCC[C@H](O)/C(=C/C1CCC(=O)C1C/C=C\CCCC(=O)OC)c1ccccc1 (mixture of isomers) [Example 9, Methyl dl-14-phenyl-15S-hydroxy-9-oxoprosta-5Z,13E-dien-1-oate] | 0 (>10000) | 0 (>10000) | 0 (>10000) | 0 (>10000) | 1 (>0.1 and ≤1.0) | 0 (<26)
4 | CCCCCC(O)/C(=C/C1CCC(=O)C1CCCCCCC(=O)OC)c1ccccc1 (racemic) [Example 5, Methyl dl-14-phenyl-15R,S-hydroxy-9-oxoprost-13E-en-1-oate] | 0 (>10000) | 0 (>10000) | 0 (>10000) | 0 (>10000) | 1 (>0.1 and ≤1.0) | 0 (<26)
5 | CCCCC[C@H](O)/C(=C/C1CCC(=O)C1C/C=C\CCCC(=O)O)c1ccccc1 (mixture of isomers) [Example 10, dl-14-Phenyl-15S-hydroxy-9-oxoprosta-5Z,13E-dien-1-oic acid] | 0 (>10000) | 0 (>10000) | 0 (>10000) | 0 (>10000) | 1 (>0.1 and ≤1.0) | 0 (<26)
6 | CCCCC[C@@H](O)/C(=C/[C@H]1[C@H](O)CC(=O)[C@@H]1C/C=C\CCCC(=O)OCC)c1ccccc1 [Example 7A, Ethyl 14-Phenyl-11α,15R-dihydroxy-9-oxoprosta-5Z,13E-dien-1-oate] | 0 (>10000) | 0 (>10000) | 0 (>10000) | 0 (>10000) | 1 (>0.1 and ≤1.0) | 0 (<26)
7 | CCCCC[C@@H](O)/C(=C/[C@H]1[C@H](O)CC(=O)[C@@H]1CCCCCCC(=O)O)c1ccccc1 [Example 3, 14-phenyl-11α,15R-dihydroxy-9-oxoprost-13E-en-1-oic acid] | 0 (>10000) | 0 (>10000) | 0 (>10000) | 0 (>10000) | 1 (>0.1 and ≤1.0) | 0 (<26)
8 | CCCCC[C@H](O)/C(=C/[C@H]1[C@H](O)CC(=O)[C@@H]1CCCCCCC(=O)OC)c1ccccc1 [Example 1, Methyl 14-Phenyl-11α,15S-dihydroxy-9-oxoprost-13E-en-1-oate] | 0 (>10000) | 0 (>10000) | 1 (1001-10000) | 0 (>10000) | 1 (>0.1 and ≤1.0) | 0 (<26)
9 | CCCCCC(O)/C(=C/C1CCC(=O)C1CCCCCCC(=O)O)c1ccccc1 (racemic) [Example 6, Methyl dl-14-phenyl-15R,S-hydroxy-9-oxoprost-13E-en-1-oic acid] | 0 (>10000) | 0 (>10000) | 0 (>10000) | 0 (>10000) | 1 (>0.1 and ≤1.0) | 0 (<26)
10 | CCCCC[C@H](O)/C(=C/[C@H]1[C@H](O)CC(=O)[C@@H]1C/C=C\CCCC(=O)OCC)c1ccccc1 [Example 7B, Ethyl-14-Phenyl-11α,15S-dihydroxy-9-oxoprosta-5Z-13E-dien-1-oate] | 0 (>10000) | 0 (>10000) | 0 (>10000) | 0 (>10000) | 1 (>0.1 and ≤1.0) | 0 (<26)
11 | CCCCC[C@H](O)/C(=C/[C@H]1[C@H](O)CC(=O)[C@@H]1CCCCCCC(=O)O)c1ccccc1 [Example 2, 14-Phenyl-11α,15S-dihydroxy-9-oxoprost-13E-en-1-oic acid] | 0 (>10000) | 0 (>10000) | 0 (>10000) | 0 (>10000) | 1 (>0.1 and ≤1.0) | 0 (<26)
12 | CCCCC[C@@H](O)/C(=C/C1CCC(=O)C1C/C=C\CCCC(=O)O)c1ccccc1 (mixture of isomers) [Example 11, dl-14-Phenyl-15R-hydroxy-9-oxoprosta-5Z-13E-dien-1-oic acid] | 0 (>10000) | 0 (>10000) | 0 (>10000) | 0 (>10000) | 1 (>0.1 and ≤1.0) | –
